# From PubChem BioAssay AID1508624 (National Center for Advancing Translational Sciences (NCATS), 2021)
# Out of some 48,000 compounds screened, about 120 (0.25%) were called active. Another 4% or so got no clear call; they are omitted. Calls follow the shape of the dose curve; as a rule, active = well fitted activation curve with a large enough effect; inconclusive = small, poorly fitted or top-dose-only effect, or another doubt; inactive = no such curve, though single readings can be large or run the other way. Some of the results follow.
# Experiment: Primary qHTS for Identification of Small Molecule Activators of Huntingtin-Antisense Promoter Activity; also: nearly all actives have a fitted effect of over 55% in size
# Details: HEK293 HTT-AS promoter firefly luciferase reporter, 24 h; series mostly up to 57.5 µM; activity change, positive = activation: at the top concentration
# Method in brief: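 HEK293 cells carrying firefly luciferase reporters were seeded at 2,500 per well in Opti-MEM and cultured for 24 h. They were then treated with compounds at up to 57.5 uM final for 24 h at 37 degrees C before Dual-Glo luminescence readout.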
# Potency is read from the fitted curve at half-maximal effect.
SMILES,"activity change, positive = activation",Potency
CC(C(=O)Nc1cc(C(F)(F)F)ccc1Cl)n1nnc2sc3c(c2c1=O)CCCC3 (configuration not stated),inactive: -27%,
COc1cccc(CNC(=O)c2nn(-c3ccccc3Cl)nc2CO)c1,inactive: -38.3%,
Cc1ccccc1C(=O)NCc1nc2cccnc2n1Cc1ccccc1,inactive: -8.17%,
Cc1ccc2oc(-c3ccc(C)c(NC(=O)c4ccc(C(C)(C)C)cc4)c3)nc2c1,inactive: 0.34%,
COc1ccc(S(=O)(=O)c2c(Nc3ccc(F)cc3)sc(C(=O)c3ccc4c(c3)OCO4)c2N)cc1,inactive: -20.7%,
CCN1CCN(C(c2ccccc2)c2sc3nc(-c4ccco4)nn3c2O)CC1 (configuration not stated),inactive: -5.2%,
CCOc1ccccc1C(=O)Oc1c(Sc2ccccc2)c(C)nn1C(C)(C)C,inactive: -18.5%,
CCOC(=O)CNC(=O)N1CCc2cc(S(=O)(=O)N3CCC(C)CC3)ccc21,inactive: -10.2%,
CCOC(=O)c1ccc(N2C(=O)c3n[nH]c(C)c3C2c2ccc(C(C)(C)C)cc2)cc1 (configuration not stated),inactive: -6.69%,
CNC(=O)C1CCC(Cn2c(=O)[nH]c3ccsc3c2=O)CC1 (configuration not stated),inactive: -3.31%,
Cc1ccc(NS(=O)(=O)c2ccc3c(c2)NC(=O)CCS3)cc1C,inactive: -38.4%,
Cc1cccc(OC(=O)c2cc(-c3ccc4c(c3)OCCO4)on2)c1,inactive: 18.9%,
Cc1ccccc1-n1c(/C=C/c2c(C)n(C)c3ccccc23)nc2ccccc2c1=O,inactive: -16.8%,
CC(C)(C)OC(=O)N1CCC(c2c(C(=O)N3CCN(c4ncccn4)CC3)cnn2-c2ccccc2)CC1,inactive: 2.91%,
CCOC(=O)c1cccc(NC(=O)c2cc(CN3CCOCC3)on2)c1,inactive: 10.3%,
CSc1ccc(CNc2ncc(-c3ccccc3)n2C)cc1,inactive: -1.92%,
CCN(CC)S(=O)(=O)c1ccc(C(=O)Nc2nc3c(Cl)cc(Cl)cc3s2)cc1,inactive: -43.9%,
CCOC(=O)c1ccc(NC(=O)COCc2cc(-c3ccc4c(c3)OCO4)on2)cc1,inactive: 5.98%,
CCC(O)c1cc2c(cc1NC(=O)c1cccc(Br)c1)OCCO2 (configuration not stated),inactive: -9.59%,
Cc1nc2ccccc2n1CCc1nc2c3ccccc3nc(SCC(=O)Nc3ccc(Br)cc3F)n2n1,inactive: 0.189%,
O=C(O)[C@H](Cc1c[nH]c2ccccc12)N1C(=O)c2ccccc2C1=O,"inactive: -13.5% [at 116 µM, percent change from vehicle, -100% = no light]",
CC(C)C12CN3CC(C(C)C)(CN(C1)C3c1ccc(Cl)cc1)C2=O (configuration not stated),inactive: -11.9%,
COc1ccc(-c2nc3ccccc3o2)cc1NC(=O)C(C)Oc1ccc(Cl)cc1Cl (configuration not stated),inactive: -5.44%,
CN1CCN(c2oc(-c3ccc(COc4ccc(Cl)cc4)o3)nc2C#N)CC1,inactive: -29%,

SMILES,"activity change, positive = activation",Potency
N#Cc1nc(-c2ccc(COc3ccccc3)o2)oc1NCc1ccccc1,inactive: -21.6%,
CN(C)CCCN(C(=O)c1cccs1)c1nc2ccc(F)cc2s1,inactive: 1.07%,
Cc1ccc(CNC(=O)CSc2nc(=O)[nH]c3c2CCCC3)cc1,inactive: -2.12%,
O=C(CN1C(=O)CCc2cc(S(=O)(=O)N3CCOCC3)ccc21)Nc1cccc(Cl)c1,inactive: -17.7%,
CCCSc1ncc(Cl)c(C(=O)N(Cc2ccc(N(C)C)cc2)C2CCS(=O)(=O)C2)n1 (configuration not stated),inactive: -30.7%,
COc1ccc(NC(=O)Cn2cnc3sc(C)c(S(=O)(=O)N4CCN(C)CC4)c3c2=O)cc1Cl,inactive: -0.987%,
Cc1ccc(-n2ncc(C(=O)Nc3ccc4c(c3)OCCO4)c2C2CCN(C(=O)OC(C)(C)C)CC2)cc1,inactive: -62.5%,
COc1ccc(Br)cc1CNC(=O)CSc1cc(=O)n(C)c2ccccc12,inactive: -15.1%,
Cc1ccccc1-c1noc(-c2cc3ccccc3oc2=O)n1,,active: 2.51 µM
Cc1ccc(-c2nc(CS(=O)(=O)CC(=O)N3CCN(c4cccc(C)c4C)CC3)c(C)o2)cc1,inactive: -22%,
CCCc1ccc(OC(C)C(=O)Nc2sc3c(c2C(=O)OC)CCCCC3)cc1 (configuration not stated),inactive: -12.8%,
CC1CCN(S(=O)(=O)c2ccc3c(c2)oc(=O)n3CC(=O)NC(C)c2ccccc2)CC1 (configuration not stated),inactive: -34.5%,
CSc1nc(Nc2cccc(C)c2)c(C#N)c(-c2ccccc2)n1,inactive: -3.19%,
CNc1c(NC(=O)c2cc(OC)cc(OC)c2)c(=O)oc2ccccc12,inactive: -1.32%,
CCOC(=O)c1cnc2ccc(OC)cc2c1NCCc1ccc(OC)c(OC)c1,inactive: -39.7%,
Cn1c(SCC(=O)N2CCCc3ccccc32)ncc(C(=O)Nc2ccc(F)cc2)c1=O,inactive: 4.92%,
CCCCNC(=O)c1nn(-c2ccc(C)cc2)c(=O)c2c1c1ccccc1n2C,inactive: -4.77%,
Cc1cccc(CNC(=O)c2cccc(NC(=O)N3CCSc4ncccc43)c2)c1,inactive: -13.6%,
O=C(O)CC(O)C(=O)O (configuration not stated),inactive: -3.02%,
COc1ccc2c(c1)c(=O)c(S(=O)(=O)c1ccc(Cl)cc1)cn2C,inactive: 0%,
Cc1ccccc1CNC(=O)C1CCN(c2nnc(-n3c(C)ccc3C)s2)CC1,inactive: 1.17%,
Cc1cccc(NC(=O)N2CCC(CN3CCC(C)CC3)CC2)c1C,inactive: -4.32%,
CCOC(=O)c1c(C)[nH]c(C)c1S(=O)(=O)N1CCCC(C(=O)Nc2ccccc2OCC)C1 (configuration not stated),inactive: -16.5%,
